# Source: the supplement of paper PMC8728848
# The list shows a part of the results.
# Experiments:
# Test in all cases: glycan array binding signal (z-score within array); higher = stronger binding
# Details in all cases: glycan notation: IUPAC condensed, linker removed
# [1] = molecular target: Gal(b1-3)GalNAc(a1-3)[Fuc(a1-2)]Gal(b1-4)GlcNAc
# Method in brief: (§1)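 Arrays were curated from the Consortium for Functional Glycomics database, 3228 in total, and kept only where the protein sequence was available. Binding is expressed as a within-array Z-score. This score was averaged across arrays of the same protein sequence at different concentrations or buffers and across linkers, and negative values can be read as non-binding.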
# [2] = molecular target: Gal(b1-3)GalNAc(b1-3)Gal(a1-4)Gal(b1-4)Glc
# Method in brief: as §1
# [3] = molecular target: Gal(b1-3)GalNAc(b1-4)Gal(b1-4)Glc
# Method in brief: as §1
# [4] = molecular target: Gal(b1-3)GalNAc(b1-4)[Neu5Ac(a2-3)]Gal(b1-4)Glc
# Method in brief: as §1
# [5] = molecular target: Gal(b1-3)GlcNAc
# Method in brief: as §1
# [6] = molecular target: Gal(b1-3)GlcNAc(a1-6)Gal(b1-4)GlcNAc
# Method in brief: as §1
# [7] = molecular target: Gal(b1-3)GlcNAc(b1-2)Man(a1-3)[Gal(b1-3)GlcNAc(b1-2)Man(a1-6)]Man(b1-4)GlcNAc(b1-4)GlcNAc
# Method in brief: as §1
# [8] = molecular target: Gal(b1-3)GlcNAc(b1-2)Man(a1-3)[Gal(b1-3)GlcNAc(b1-2)Man(a1-6)]Man(b1-4)GlcNAc(b1-4)[Fuc(a1-6)]GlcNAc
# Method in brief: as §1
# [9] = molecular target: Gal(b1-3)GlcNAc(b1-3)Gal(b1-3)GlcNAc
# Method in brief: as §1
# [10] = molecular target: Gal(b1-3)GlcNAc(b1-3)Gal(b1-4)Glc
# Method in brief: as §1
# [11] = molecular target: Gal(b1-3)GlcNAc(b1-3)Gal(b1-4)GlcNAc
# Method in brief: as §1
# [12] = molecular target: Gal(b1-3)GlcNAc(b1-3)Gal(b1-4)GlcNAc(b1-6)[Gal(b1-3)GlcNAc(b1-3)]Gal(b1-4)Glc
# Method in brief: as §1
# [13] = molecular target: Gal(b1-3)GlcNAc(b1-3)Gal(b1-4)[Fuc(a1-3)]GlcNAc(b1-6)[Gal(b1-3)GlcNAc(b1-3)]Gal(b1-4)Glc
# Method in brief: as §1
# [14] = molecular target: Gal(b1-3)GlcNAc(b1-3)GalNAc
# Method in brief: as §1
# [15] = molecular target: Gal(b1-3)GlcNAc(b1-6)Gal(b1-4)GlcNAc
# Method in brief: as §1
# [16] = molecular target: Gal(b1-3)[Fuc(a1-4)]GlcNAc
# Method in brief: as §1
# [17] = molecular target: Gal(b1-3)[Fuc(a1-4)]GlcNAc(b1-2)Man(a1-3)[Gal(b1-3)[Fuc(a1-4)]GlcNAc(b1-2)Man(a1-6)]Man(b1-4)GlcNAc(b1-4)GlcNAc
# Method in brief: as §1
# [18] = molecular target: Gal(b1-3)[Fuc(a1-4)]GlcNAc(b1-2)Man(a1-3)[Gal(b1-3)[Fuc(a1-4)]GlcNAc(b1-2)Man(a1-6)]Man(b1-4)GlcNAc(b1-4)[Fuc(a1-6)]GlcNAc
# Method in brief: as §1
# [19] = molecular target: Gal(b1-3)[Fuc(a1-4)]GlcNAc(b1-3)Gal(b1-3)[Fuc(a1-4)]GlcNAc
# Method in brief: as §1
# [20] = molecular target: Gal(b1-3)[Fuc(a1-4)]GlcNAc(b1-3)Gal(b1-4)GlcNAc
# Method in brief: as §1
# [21] = molecular target: Gal(b1-3)[Fuc(a1-4)]GlcNAc(b1-3)Gal(b1-4)[Fuc(a1-3)]GlcNAc
# Method in brief: as §1
# [22] = molecular target: Gal(b1-3)[GlcNAc(b1-6)]GalNAc
# Method in brief: as §1
# [23] = molecular target: Gal(b1-3)[Neu5Ac(a2-6)]GalNAc
# Method in brief: as §1
# [24] = molecular target: Gal(b1-3)[Neu5Ac(a2-6)]GlcNAc(b1-6)Gal(b1-4)Glc
# Method in brief: as §1
# [25] = molecular target: Gal(b1-3)[Neu5Ac(b2-6)]GalNAc
# Method in brief: as §1
# [26] = molecular target: Gal(b1-4)GalNAc(a1-3)[Fuc(a1-2)]Gal(b1-4)GlcNAc
# Method in brief: as §1
# [27] = molecular target: Gal(b1-4)GalNAc(b1-3)[Fuc(a1-2)]Gal(b1-4)GlcNAc
# Method in brief: as §1
# [28] = molecular target: Gal(b1-4)Glc
# Method in brief: as §1
# [29] = molecular target: Gal(b1-4)Glc6S
# Method in brief: as §1
# [30] = molecular target: Gal(b1-4)GlcNAc
# Method in brief: as §1
# [31] = molecular target: Gal(b1-4)GlcNAc(a1-6)Gal(b1-4)GlcNAc
# Method in brief: as §1
# [32] = molecular target: Gal(b1-4)GlcNAc(b1-2)Man(a1-3)Man(b1-4)GlcNAc(b1-4)GlcNAc
# Method in brief: as §1
# [33] = molecular target: Gal(b1-4)GlcNAc(b1-2)Man(a1-3)[Gal(b1-4)GlcNAc(b1-2)Man(a1-6)]Man(b1-4)GlcNAc(b1-4)GlcNAc
# Method in brief: as §1
# [34] = molecular target: Gal(b1-4)GlcNAc(b1-2)Man(a1-3)[Gal(b1-4)GlcNAc(b1-2)Man(a1-6)]Man(b1-4)GlcNAc(b1-4)[Fuc(a1-6)]GlcNAc
# Method in brief: as §1
# [35] = molecular target: Gal(b1-4)GlcNAc(b1-2)Man(a1-3)[GlcNAc(b1-2)Man(a1-6)]Man(b1-4)GlcNAc(b1-4)GlcNAc
# Method in brief: as §1
# [36] = molecular target: Gal(b1-4)GlcNAc(b1-2)Man(a1-3)[Man(a1-6)]Man(b1-4)GlcNAc(b1-4)GlcNAc
# Method in brief: as §1
# [37] = molecular target: Gal(b1-4)GlcNAc(b1-2)Man(a1-6)Man(b1-4)GlcNAc(b1-4)GlcNAc
# Method in brief: as §1
# [38] = molecular target: Gal(b1-4)GlcNAc(b1-2)Man(a1-6)[GlcNAc(b1-2)Man(a1-3)]Man(b1-4)GlcNAc(b1-4)GlcNAc
# Method in brief: as §1
# [39] = molecular target: Gal(b1-4)GlcNAc(b1-2)Man(a1-6)[Man(a1-3)]Man(b1-4)GlcNAc(b1-4)GlcNAc
# Method in brief: as §1
# [40] = molecular target: Gal(b1-4)GlcNAc(b1-2)[Gal(b1-4)GlcNAc(b1-4)]Man(a1-3)[Gal(b1-4)GlcNAc(b1-2)Man(a1-6)]Man(b1-4)GlcNAc(b1-4)GlcNAc
# Method in brief: as §1
# [41] = molecular target: Gal(b1-4)GlcNAc(b1-2)[Gal(b1-4)GlcNAc(b1-4)]Man(a1-3)[Gal(b1-4)GlcNAc(b1-2)[Gal(b1-4)GlcNAc(b1-6)]Man(a1-6)]Man(b1-4)GlcNAc(b1-4)GlcNAc
# Method in brief: as §1
# [42] = molecular target: Gal(b1-4)GlcNAc(b1-3)Gal(b1-3)GlcNAc
# Method in brief: as §1
# [43] = molecular target: Gal(b1-4)GlcNAc(b1-3)Gal(b1-4)Glc
# Method in brief: as §1
# [44] = molecular target: Gal(b1-4)GlcNAc(b1-3)Gal(b1-4)GlcNAc
# Method in brief: as §1
# [45] = molecular target: Gal(b1-4)GlcNAc(b1-3)Gal(b1-4)GlcNAc(b1-3)Gal(b1-4)GlcNAc
# Method in brief: as §1
binder,measurement,setting,value
"Ecp6 (Cladosporium fulvum), B3VBK9 (protein) MQSMILFAAALMGAAVNGFVLPRTDDPDCETKATDCGSTSNIKYTVVKGDTLTSIAKKFKSGICNIVSVNKLANPNLIELGATLIIPENCSNPDNKSCVSTPAEPTETCVPGLPGSYTIVSGDTLTNISQDFNITLDSLIAANTQIENPDAIDVGQIITVPVCPSSQCEAVGTYNIVAGDLFVDLAATYHTTIGQIKALNNNVNPSKLKVGQQIILPQDCKNVTTAVA",glycan array binding signal (z-score),[1],-0.086
same,glycan array binding signal (z-score),[2],-0.064
same,glycan array binding signal (z-score),[3],-0.093
same,glycan array binding signal (z-score),[4],-0.062
same,glycan array binding signal (z-score),[5],-0.088
same,glycan array binding signal (z-score),[6],-0.095
same,glycan array binding signal (z-score),[7],-0.096
same,glycan array binding signal (z-score),[8],-0.094
same,glycan array binding signal (z-score),[9],-0.083
same,glycan array binding signal (z-score),[10],-0.076
same,glycan array binding signal (z-score),[11],-0.08
same,glycan array binding signal (z-score),[12],-0.107
same,glycan array binding signal (z-score),[13],-0.122
same,glycan array binding signal (z-score),[14],-0.089
same,glycan array binding signal (z-score),[15],-0.085
same,glycan array binding signal (z-score),[16],-0.083
same,glycan array binding signal (z-score),[17],-0.039
same,glycan array binding signal (z-score),[18],-0.097
same,glycan array binding signal (z-score),[19],-0.086
same,glycan array binding signal (z-score),[20],-0.086
same,glycan array binding signal (z-score),[21],-0.093
same,glycan array binding signal (z-score),[22],-0.107
same,glycan array binding signal (z-score),[23],-0.091
same,glycan array binding signal (z-score),[24],-0.102
same,glycan array binding signal (z-score),[25],-0.094
same,glycan array binding signal (z-score),[26],-0.081
same,glycan array binding signal (z-score),[27],-0.078
same,glycan array binding signal (z-score),[28],-0.083
same,glycan array binding signal (z-score),[29],-0.079
same,glycan array binding signal (z-score),[30],-0.079
same,glycan array binding signal (z-score),[31],-0.109
same,glycan array binding signal (z-score),[32],-0.095
same,glycan array binding signal (z-score),[33],-0.084
same,glycan array binding signal (z-score),[34],-0.1
same,glycan array binding signal (z-score),[35],-0.092
same,glycan array binding signal (z-score),[36],-0.097
same,glycan array binding signal (z-score),[37],-0.111
same,glycan array binding signal (z-score),[38],-0.106
same,glycan array binding signal (z-score),[39],-0.103
same,glycan array binding signal (z-score),[40],-0.087
same,glycan array binding signal (z-score),[41],-0.107
same,glycan array binding signal (z-score),[42],-0.094
same,glycan array binding signal (z-score),[43],-0.084
same,glycan array binding signal (z-score),[44],-0.083
same,glycan array binding signal (z-score),[45],-0.085
